Sequences with one replicate were seen in a single cluster, so their values are uncertain.
These sequences were tested on ATP (assay: switch fluorescence ratio, 500 uM ATP over buffer (Cy3 cluster intensity, sum of 5 cycles each) (fold (ratio)); higher = stronger signal-on switching upon ATP binding; sequences stand for … in TCGTCGGCAGCGTCAGATGTGTATAAGAGACAGTTTTTTTTTTTTTTTTTTTTTTTTT…TC). Settings: aptamer strand: ATP DNA aptamer (quencher-CACCTGGGGGAGTATTGCGGAGGAAGG + anchor), 100 nM annealed; ATP concentration: 500 uM; one replicate.
Outline: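 Values give the fluorescence ratio for each switch-domain sequence, averaged from per-cluster ratios of summed target-cycle to summed buffer-cycle Cy3 intensity. The Cy3-labelled switching-strand clusters sat on a modified Illumina MiSeq flow-cell, were annealed to 100 nM quencher-labelled ATP aptamer, and were imaged in selection buffer, then after 15 min with 500 uM ATP at 22 °C. Five cycles ran with NaOH stripping and re-annealing between them, and clusters outside 100-1000 RFU were excluded.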
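Note: ATP exposure 15 min at 22 °C before imaging.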

Row | Sequence | switch fluorescence ratio
1 | CAAGGCTTGG | 0.983
2 | GGGGCATCGG | 1.02
3 | ACCGTTTCC | 1.5
4 | TGCGGGCGGA | 0.97
5 | TTGTCATATT | 1.03
6 | TGCGTCATGA | 0.958
7 | AAAAATCTAA | 0.986
8 | CCGAACTGGG | 1.04
9 | GACTCATCTG | 0.962
10 | GGCGTAAGG | 1.02
11 | CATGTGGATG | 1.03
12 | GGGAACGCAC | 1.83
13 | GGTGGCGGGC | 1
14 | CGAGACGCGC | 0.999
15 | CGAGTCGCGG | 0.987
16 | CGGTGAGCAG | 0.954
17 | GGGAGTTATG | 0.982
18 | ATATCTTAG | 1.04
19 | ATAGGCAGTT | 0.966
20 | GGAAGGCACA | 1.05
21 | AGGATACTCC | 1.27
22 | GGGCTTTCAT | 1.01
23 | GTCCGAATGT | 1.01

Row | Sequence | switch fluorescence ratio
24 | CAGGTCAAAA | 1.02
25 | TAGGACTGGT | 0.997
26 | TTGGAAACGC | 1.04
27 | GGGGTTCTTC | 1.05
28 | GGAATCCTGT | 1.01
29 | TTGCTGGACT | 1.01
30 | TCTTATGGTC | 1.03
31 | GCTGGCGGTG | 0.966
32 | ATAGCGTGCG | 0.995
33 | TGATAGGCTT | 1
34 | ATGCCGACAG | 0.997
35 | CGGGTTGCGT | 0.981
36 | ACACGTGCTC | 0.993
37 | CCACGGATCG | 1.05
38 | CAGCAGGGCG | 0.999
39 | GCCGATGGGG | 1.05
40 | CAAGCTTCAG | 0.983
41 | GTTTAACCTC | 1.03
42 | AACAGACGTG | 1.02
43 | GGTACTAGCA | 1.01
44 | GGGCGGGAGC | 1.02
45 | ATTCACTTAA | 1.03
46 | TGTATATCAT | 0.994

Row | Sequence | switch fluorescence ratio
47 | GGGGTCTTAA | 0.981
48 | TCATCAGCTT | 1.33
49 | ACCCTTCTCC | 1.64
50 | GTTATAGGT | 0.967
51 | ATAGTACTGG | 1.04
52 | AACGCTG | 0.977
53 | AACGTCCGGC | 0.963
54 | TTCGCAT | 1.09
55 | GGACACGTGG | 0.941
56 | AATTACTTAA | 1.11
57 | TTTCCAGTCC | 0.989
58 | ACGCTACCGC | 1.36
59 | GCCTGCTAGT | 1.01
60 | GTTACCATT | 0.967
61 | TTAATTCTGA | 1.04
62 | CGACGTCCAC | 2.2
63 | GGTTCGGCA | 0.977
64 | AGGAGAGCAT | 0.999
65 | GGTATAAGCG | 1.02
66 | CTTGGATTGA | 1
67 | ACATGTCTTA | 1.02
68 | TCCCACGATC | 1.18
69 | CGTTGGGGTA | 1.01

Row | Sequence | switch fluorescence ratio
70 | GGATTAGGAC | 1.03
71 | GTTGGACGGT | 1.01
72 | GATTCAACCA | 0.993
73 | TTGGCTGTA | 1
74 | GATTGGGGTC | 0.98
75 | GAAATGTTAC | 1.14
76 | CAAATTGATT | 0.971
77 | GAGGGACCAA | 1.02
78 | ATAAAGGATT | 1.02
79 | TTGAGATG | 0.983
80 | TGCTCCAATA | 1.74
81 | AATCTCCGTA | 1.07
82 | TAAGGGAGCG | 1.02
83 | CTTGAAGGAC | 1.1
84 | TGCTCGCTGA | 1.07
85 | TGAGTTTACT | 0.985
86 | GATTGGATGC | 1
87 | ATAGGGTAGT | 1.02
88 | CTGGGAAAAT | 0.999
89 | TTAGAAAAGC | 0.986
90 | TCTGCGAATT | 1
91 | TACAATACGA | 2.28
92 | ACTTACCGGT | 1.11

Row | Sequence | switch fluorescence ratio
93 | GAGGTGTCCA | 1.01
94 | CTTCGTGTGC | 1.13
95 | AGGAATAAG | 0.982
96 | ATATCAGTC | 1.04
97 | CTTTGGACTG | 1.07
98 | TTATGTCGTG | 0.981
99 | TTATAAGGTC | 0.985
100 | CCACTGAGTC | 1.03
101 | TACGACGGGA | 1.44
102 | GCATTCACTT | 1.01
103 | TGGTACATTC | 1.06
104 | GAAAAACCAT | 0.994
105 | TGTGTACGTA | 1.1
106 | CGGCCATCCA | 0.985
107 | TAGCGTAGCC | 0.961
108 | TGCATTCGGA | 0.997
109 | TGATGTGGTT | 0.964
110 | GTGGAGTTTC | 0.955
111 | ATCAGAGACT | 1.01
112 | ACTATTGCTG | 0.978
113 | ATACATTAAG | 1.11
114 | GGTAAACCAT | 1.02
115 | TGAGTTTGGA | 1.05

Row | Sequence | switch fluorescence ratio
116 | ACGCGAATTT | 1.35
117 | GCATGTGAAG | 0.977
118 | CATTTTGGTG | 1.03
119 | TGGACCTGGG | 1.1
120 | AAGTGCGGTA | 0.992
121 | GGTGCGTGCA | 0.974
122 | CGCTTTGTGG | 0.975
123 | TTGGAGCCCC | 1.02
124 | CAGCATCCGG | 1.04
125 | GACGGAAAGG | 1.05
126 | TAACTTGATG | 0.998
127 | GCGTCGGGGT | 1.01
128 | ATTACATGAC | 1.16
129 | ATATATTTCC | 1.06
130 | TATATCTGGT | 1
131 | AGATAAGGAA | 0.991
132 | TCATATCTGT | 0.969
133 | AGGTGGATCT | 1.02
134 | AGTGTTAACA | 1.01
135 | TCTTGGTTAT | 0.967
136 | GAGAAGATAT | 0.996
137 | CTCGGGAGAT | 0.985
138 | GAGCGCACTT | 1.36

Row | Sequence | switch fluorescence ratio
139 | AGGTCTCCAG | 0.982
140 | ATCGCATAGG | 1.11
141 | AATATGTCGT | 1
142 | TTGCGATGTG | 1.03
143 | GGCTATAGCT | 1.03
144 | GCGTTCAGTG | 0.974
145 | GAAAGGCCTC | 0.978
146 | CGGACGACAA | 3
147 | CCTAAGTTGT | 1.05
148 | CTTGATAATT | 0.994
149 | TGCTCCTATC | 1.15
150 | CCTTCAGGGA | 0.965
151 | GGAGGTGCAT | 1.05
152 | TAATAGACTA | 1.01
153 | TCTCTTGGGG | 0.942
154 | ATATTTCGTT | 0.998
155 | TACCACAGGA | 1.09
156 | GGGACACCGA | 1.05
157 | GAAGTAGATC | 1.01

From the supplement of paper PMC10126150
